Results taken from patent US20190284293A1, “COMBINATION THERAPY WITH ANTI-CD73 ANTIBODIES” (BRISTOL-MYERS SQUIBB COMPANY, priority 2016, published 2019).

Tests used:
[1] = SEC-MALS, oligomeric state of CD73 mAbs; format: physicochemical
Method: The oligomeric state of CD73 mAbs were examined by size-exclusion chromatography coupled to an in-line multi-angle light scattering detector (SEC-MALS). Isocratic separations were performed on a Shodex PROTEIN KW-803 column connected to an Prominence Shimadzu UFLC in buffer containing 200 mM K2HPO4, 150 mM NaCl, pH 6.8, containing 0.02% Na azide (0.1 μm filtered) running at 0.5 mL/min. Samples were injected onto the column using a SIL-20AC Prominence Shimadzu autosampler, and data were obtained from three online detectors connected in series: a Prominence SPD-20AD diode array UV/vis spectrophotometer followed by a Wyatt miniDAWN™ TREOS Multi-Angle Light Scattering Detector then a Wyatt Optilab T-rEX Refractive Index Detector. Data (as shown in Table 15 below) were collected and analyzed using Astra (Wyatt) and Labsolutions (Shimadzu) software.

[2] = Differential scanning calorimetry (DSC), thermal stability; format: physicochemical; settings: PBS pH 7.1
Method: The thermal stability of CD73 mAbs were determined using a MicroCal Capillary DSC instrument (GE Healthcare). Antibodies were analyzed at a concentrations of 0.5-0.75 mg/ml in PBS pH 7.1. To stabilize the DSC instrument baseline and obtain a consistent thermal history, multiple scans of buffer alone in both the sample and reference cell were recorded prior to sample analysis. Sample scans contained mAb in the sample cell and PBS pH 7.1 in the reference cell. All scans were run from 10-110° C. at a scan rate of 60°/hr using a 5 minute pre-cycle thermostat period and no post-cycle thermostat period. Data (as shown in Table 15 below) were analyzed using MicroCal Origin Cap DSC analysis software. The appropriate buffer-buffer blank scans were subtracted from the sample-buffer data, and the transition midpoint temperature (Tm) values were determined by fitting the data to a non-2-state model. Tm1, Tm2 and Tm3 are the Tms for different domains in the antibodies.

[3] = target: T1, CD73 in Calu6 cells (Homo sapiens, UniProt P21589); assay: High-content internalization assay (2 hour fixed time); format: cell-based
T1 construct: Calu6 (CD73 endogenous expressors; human pulmonary adenocarcinoma cell line); endogenous in cells; host or cells: Calu6
T1 sequence (P21589 27-549): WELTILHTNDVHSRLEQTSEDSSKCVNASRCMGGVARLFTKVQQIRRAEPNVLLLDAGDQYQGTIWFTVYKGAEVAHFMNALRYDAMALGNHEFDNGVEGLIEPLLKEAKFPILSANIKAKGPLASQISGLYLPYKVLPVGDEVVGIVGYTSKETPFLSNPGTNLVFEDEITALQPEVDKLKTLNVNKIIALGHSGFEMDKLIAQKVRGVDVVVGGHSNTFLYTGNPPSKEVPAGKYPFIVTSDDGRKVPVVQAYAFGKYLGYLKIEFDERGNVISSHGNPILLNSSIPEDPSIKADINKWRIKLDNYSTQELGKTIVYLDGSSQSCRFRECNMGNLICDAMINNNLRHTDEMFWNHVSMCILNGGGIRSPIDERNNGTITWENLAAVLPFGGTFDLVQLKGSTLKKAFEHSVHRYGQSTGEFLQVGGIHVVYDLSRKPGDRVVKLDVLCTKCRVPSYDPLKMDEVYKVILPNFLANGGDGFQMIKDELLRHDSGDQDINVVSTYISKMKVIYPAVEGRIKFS
Method: The anti-CD73 antibodies were used to test anti-CD73 antibody dependent CD73 internalization in Calu6 cells by assessing cellular expression after 2 hours of antibody incubation. Cells (2,000 cells/well) in 20 μl of complete medium (Gibco RPMI Media 1640 with (0% heat inactivated fetal bovine serum) were plated in 384 BD Falcon plate and grown overnight at 37° C. 5% CO2 and 95% humidity. Anti-CD73 antibodies were serially diluted with PBS buffer containing 0.2% BSA, and added at 5 μl/well into the cell plate. The cells were incubated with antibodies for 2 hours at 37° C. 5% CO2 and 95% humidity, followed by washing once with PBS buffer. Formaldehyde (final 4% in PBS) was then added into cell plate at 20 ul/well, and the plate was incubated at room temperature for 10 minutes. Afterwards, all liquid was aspirated and cells were washed once with 30 ul PBS. Detection antibody (2.5 μg/well of anti-CD73 Ab CD73.10.IgG2C219S) was added at 15 μg/well into the fixed cell plate. The cells were incubated at 4° C. overnight. On the next day, the plate was washed twice with PBS buffer, followed by adding secondary antibody containing Alexa-488 goat anti human and DAPI, stained for 1 hour at room temperature. […] IC50 and Ymax were measured. […] All calculations were determined as a percentage of internalization compared to this control, which was set to 100%.

internalization of bin 2 antibodies [3]: did not internalize significantly
B1: 5F8: human anti-human CD73 monoclonal antibody, IgG1za, predominant light chain VK1 (antibody)
heavy: EVQLVESGGGLVQPGGSLRLSCAASGFTFSSYWMHWVRQAPGKGLVWVSRIISDGSSTGYADSVKGRFTISRDNAKNTLYLQMNSLRAEDTAVYYCAREFSSGWYFDYWGQGTLVTVSS[human IgG1 constant region cut from this listing]
light: AIQLTQSPSSLSASVGDRVTITCRASQGISSALAWYQQKPGKAPKLLIYDASSLESGVPSRFSGSGSGTDFTLTISSLQPEDFATYYCQQFSSYPRTFGQGTKVEIKRTVAAPSVFIFPPSDEQLKSGTASVVCLLNNFYPREAKVQWKVDNALQSGNSQESVTEQDSKDSTYSLSSTLTLSKADYEKHKVYACEVTHQGLSSPVTKSFNRGEC
SEC % HMW [1]: 2.3%
SEC % LMW [1]: 0.0%
SEC % Monomer [1]: 97.7%
DSC Tm1 (° C.) [2]: 68.7 °C
DSC Tm2 (° C.) [2]: 82.7 °C
DSC Tonset (° C.) [2]: 59.0 °C
